# Experimental data taken from PubChem BioAssay AID1745853 (National Center for Advancing Translational Sciences (NCATS), 2022).
# This is one part of the list. Further columns of the screen follow, without active or inactive calls.
# What was measured:
# Assay in all cases: Primary Screen for Target Class Profiling of Small Molecule Inhibitors of Methyltransferases
# [1] = molecular target: Glycine N-methyltransferase (Homo sapiens) (UniProt Q14749); conditions: purified enzyme, MTase-Glo SAH luminescence; measured here: GNMT inhibition; at 40 µM; stronger effect = lower value
# Method in brief: (§1)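 Each enzyme was reacted with SAM and its substrate, with compounds tested once at 40 uM; SAH formed was read by MTase-Glo luminescence.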
# [2] = molecular target: Guanidinoacetate N-methyltransferase (Homo sapiens) (UniProt Q14353); conditions: purified enzyme, MTase-Glo SAH luminescence; measured here: GAMT inhibition; at 40 µM; stronger effect = lower value
# Method in brief: as §1
# [3] = molecular target: Histamine N-methyltransferase (Homo sapiens) (UniProt P50135); conditions: purified enzyme, MTase-Glo SAH luminescence; measured here: HNMT inhibition; at 40 µM; stronger effect = lower value
# Method in brief: as §1
# [4] = molecular target: Nicotinamide N-methyltransferase (Homo sapiens) (UniProt P40261); conditions: purified enzyme, MTase-Glo SAH luminescence; measured here: NNMT inhibition; at 40 µM; stronger effect = lower value
# Method in brief: as §1
# [5] = molecular target: Phenylethanolamine N-methyltransferase (Homo sapiens) (UniProt P11086); conditions: purified enzyme, MTase-Glo SAH luminescence; measured here: PNMT inhibition; at 40 µM; stronger effect = lower value
# Method in brief: as §1
# % is scaled to controls: 0 for no effect and ±100 for the full control effect.
Structure (SMILES),"activity change, negative = inhibition [1] [%]","activity change, negative = inhibition [2] [%]","activity change, negative = inhibition [3] [%]","activity change, negative = inhibition [4] [%]","activity change, negative = inhibition [5] [%]"
COc1ccc(CNC(=O)C[C@@H]2O[C@H](CNCc3cccc(Cl)c3)[C@@H](O)[C@H]2O)cc1,-0.803,-6.35,0.007,-7.22,-4.41
O=C1Nc2nc(-c3c(O)cccc3OCC3CC3)cc([C@@H]3CCCNC3)c2CO1,-4.75,5.29,-9.67,-35,-11.2
CN1c2cccnc2CN(Cc2ccccc2Cl)CC[C@H]1CO,-3.2,-3.24,-21.3,-11,-3.96
Cn1nccc1OCc1cn2c(=O)n(C)cc(-c3ccc(F)cc3)c2n1,-5.51,-6.19,0.909,-6.72,-1.47
Cc1[nH]ccc1C(=O)N(CCN1CCCCC1)CC1CCCN(C2CCCC2)C1 (stereo not given),-0.084,-1.21,-6.99,-4.03,4.63
CC1(C)[C@H]2CC=C(CN3CCC(CCC(=O)N4CCN(c5ccccc5)CC4)CC3)[C@@H]1C2,-4.5,-5.63,-2.42,-7.22,-17
O=C1c2cc3occc3n2CC(C(=O)NC2CCCCCCC2)(c2ccccc2)N1Cc1ccc(F)cc1 (stereo not given),2.18,4.56,0.473,-2.41,-4.63
CCCN1C(=O)c2c(C(=O)NCc3ccc(N(C)C)cc3)ncn2CC1(C)C(=O)NCc1ccc(F)cc1 (stereo not given),4.19,1.61,7.78,1.19,11.5
CCOC(=O)c1cc2n(n1)CC(C)(C(=O)NC1CCCCCC1)N(c1ccc(NC(C)=O)cc1)C2=O (stereo not given),6.57,0.546,5.26,8.1,4.76
CC1CCC(NC(=O)C2(C)Cn3c(nc4ccccc43)C(=O)N2Cc2ccc3c(c2)OCO3)CC1 (stereo not given),-5.41,-8.46,8.66,-22.9,-4.68
CC(C)Cn1c(=O)c2ccccc2n2c(SCc3ccc(F)cc3Cl)nnc12,1.93,0,10.4,-7.74,7.84
CC1CCC2(NC1)OC1CC3C4CC=C5CC(O[C@@H]6O[C@H](CO)[C@@H](O[C@@H]7O[C@@H](C)[C@H](O)[C@@H](O)[C@H]7O)[C@H](O)[C@H]6O[C@@H]6O[C@@H](C)[C@H](O)[C@@H](O)[C@H]6O)CCC5(C)C4CCC3(C)C1C2C (stereo not given in full),-3.43,3.52,0.62,-13.3,-7.53
COc1ccc(-n2cccn2)c(CN2CC[C@H](CO)[C@H](O)C2)c1,-2.03,-1.01,0.498,0.303,5.26
CCCN1C(=O)c2c(C(=O)NCc3ccc(CC)cc3)ncn2CC1(C)C(=O)NCc1ccc(F)cc1 (stereo not given),-1.91,0,4.92,-2.84,4.66
CC(C)Cn1c(=O)c2ccc(Cl)cc2n2c(SCC(=O)NC3CCCCC3)nnc12,-1.34,2.28,2.67,-7.48,-2.72
O=S(=O)(c1ccc(F)cc1)N1CCC(Oc2ccc(-c3noc(C4CC4)n3)cc2)C1 (stereo not given),-4.05,-7.16,-2.84,-6.52,-6.09
O=C(NCCc1ccc(Cl)cc1)c1ccc2c(=O)[nH]c3c(C(=O)NC4CCCC4)sc(=S)n3c2c1,-46.8,3.65,-11.6,-51.8,-16.1
Cc1cc2c(cc1Cl)N(C(=O)Nc1ccnc3ccccc13)CC2,-54.2,-3.53,-8.18,-43.3,-21.8
C[C@@H]1CC[C@@]23CC[C@]4(C)[C@@](C=CC5[C@@]6(C)CC[C@H](O)C(C)(C)C6CC[C@]54C)(OC2=O)C3[C@H]1C (stereo not given in full),0,-17.4,-7.06,-35.2,-11.2
C=CC[N+]1([C@H]2C[C@H]3[C@@H]4CC[C@H]5C[C@H](OC(C)=O)[C@@H](N6CCCCC6)C[C@]5(C)[C@H]4CC[C@]3(C)[C@H]2OC(=O)CC)CCCCC1,-0.262,6.64,-76.8,-10.7,2.85

Structure (SMILES),"activity change, negative = inhibition [1] [%]","activity change, negative = inhibition [2] [%]","activity change, negative = inhibition [3] [%]","activity change, negative = inhibition [4] [%]","activity change, negative = inhibition [5] [%]"
COc1cc2c(cc1-c1ccc(S(C)(=O)=O)cc1)OCC(C)(C)CC2CO (stereo not given),-5.72,-0.682,-1.78,-7.96,6.6
O=C1CC2(CCCC2)CC(=O)N1CCCCN1CCN(c2ncccn2)CC1,-5.02,1.2,-0.74,-11.4,-1.17
CCCC(=O)NCCc1c2n(c3ccc(OC)cc13)CCCc1ccccc1-2,-69.6,-55.7,-73.7,-44.1,-63.4
Cc1nn2c(c1-c1ccccc1C(C)C)N(Cc1ccc(C(=O)O)s1)CCC2,-13.2,-3.07,-4.53,-20.4,0.59
Cc1ncoc1C(=O)N1CCC(N2CCCC(C(=O)N3CCCC3)C2)CC1 (stereo not given),0.246,0.47,2.47,-1.6,-9.98
CC(C)(O)C1=CCC23COC(C2)C(O)(C(=O)O)CCC13 (stereo not given),0,6.02,8.27,-4.1,4.48
COCc1ccc2c(c1)c(OC(C)(C)C(=O)NCC1CCOCC1)nn2Cc1ccccc1,-1.47,2.58,2.76,-1.59,0.958
CN(C)c1cccc(C(=O)Nc2ncc(-c3cnn(C)c3)c3c2OCC3)c1,-12.4,-6.18,-3.84,-8.73,-7.86
Cc1noc(C)c1-c1cc(-c2ccncc2)cn2cncc12,-24.1,-12.2,-12.6,-29.4,-21.7
CC(=O)Oc1ccc(C2Nc3c(C(=O)c4ccccc4)cc(Cl)cc3C3C=CCC32)cc1 (stereo not given),-14.7,-0.852,-15.4,-29.9,-18.7
C[C@H]1[C@@H]2[C@@H](O)C([C@H](C)C(=O)NCc3ccc(F)cc3)CC[C@@]2(C)CC[C@@H]1NC(=O)Cc1ccccc1 (stereo not given in full),-5.6,-3.06,-2.53,-8.91,-6.26
O=C(NOC[C@H](O)CO)c1ccc(F)c(F)c1Nc1ccc(I)cc1F,-3.58,-0.774,4.49,-17.8,0.029
CC(C)c1cc(-c2ccc(F)c3ccccc23)nc(N)n1,-5.39,2.08,5.78,-27,-4.33
Cc1occc1C(=O)n1ccnc1,4.65,-4.98,-6.89,-15.3,-7.7
CC(NC(=O)CCn1ccc2cc(S(=O)(=O)N3CCCCC3)ccc21)c1ccccc1 (stereo not given),-0.541,0.072,1.46,-6.2,-0.323
Cc1ccc(-c2nnn3c2nc(NCc2ccc4c(c2)OCO4)c2ccccc23)cc1,3.82,1.25,7.35,7.1,1.03
Cc1cc(C)cc(N2C(=O)c3cc4sccc4n3CC2(C)C(=O)NC2CCCCCCC2)c1 (stereo not given),5.67,0,8.84,8.29,4.37
CNc1nc2c(s1)C[C@]1(C)CCC([C@H](C)C(=O)N3CCSCC3)[C@H](O)[C@H]1[C@@H]2C (stereo not given in full),-7.05,-6.92,-3.8,-16.6,-7.24
Cc1cc(C)c(/C=C2\C(=O)Nc3ccccc32)[nH]1,-13.7,0.047,-4.47,-6.56,1.76
COc1ccc(CCN2CCC(CN(C)C(=O)C3CCCCO3)CC2)cc1 (stereo not given),-3.24,-6.53,-1.46,-7.7,0.309

Structure (SMILES),"activity change, negative = inhibition [1] [%]","activity change, negative = inhibition [2] [%]","activity change, negative = inhibition [3] [%]","activity change, negative = inhibition [4] [%]","activity change, negative = inhibition [5] [%]"
Cn1c(=O)n(C)c2cc(S(=O)(=O)Nc3cccc(C(=O)O)c3)ccc21,-1.53,0,3,10.4,-1.6
Cc1cc(C)cc(-c2cnc3cc(Cl)c(-c4cccc(O)c4)cc3c2OCCCN)c1,-8.39,-10.2,-24,-93.3,-9.66
CC1=C2C(=O)C=C(CO)[C@@H]2[C@H]2OC(=O)[C@H](C)[C@@H]2[C@@H](O)C1,-0.682,0.164,6.55,-8.53,-0.161
O=C(NCc1ccccc1Cl)c1ccc2c(=O)nc3c(-c4ccccc4F)n[nH]n3c2c1,-24.9,4.81,1.06,-0.818,-5.66
Cn1c(=O)n(C)c2cc(S(=O)(=O)N3CCN(c4ccccn4)CC3)ccc21,-0.026,-1.86,-5.68,-1.3,-11.6
CN1C(=O)c2cc(C(=O)NCc3cccnc3)nn2CC1(C)C(=O)NC1CCCCCC1 (stereo not given),1.74,4.67,-7.4,1.65,2.94
O=C(NCCc1csc(-c2ncccn2)n1)C1NCCc2[nH]cnc21 (stereo not given),-4.84,-7.79,-6.99,-12.3,-8.63
CC1(C(=O)NC2CCCCC2)Cn2c(cc3sccc32)C(=O)N1Cc1ccco1 (stereo not given),-2.6,4.73,3.22,-0.365,-1.5
CCCn1c(=O)c2ccc(C(=O)NC3CCCC3)cc2n2c(SCC(=O)NC(C)(C)C)nnc12,-2.69,0.774,5.38,0.024,5.46
O=C(c1cn[nH]c1)N1CC2(CN(Cc3cccc(Cl)c3)CC2COc2ccccc2)C1 (stereo not given),-9.94,-2.19,-3.56,-7.82,-16.2
CCCOc1ccc(CN2C(=O)c3cc4occc4n3CC2(C)C(=O)NC2CCCCCCC2)cc1 (stereo not given),-0.169,0,6.13,-7.88,-0.878
Cc1ccccc1CN1C(=O)c2nc3ccccc3n2CC1(C)C(=O)NC1CCCC(C)C1C (stereo not given),4.29,2.51,3.29,1.02,1.13
COc1ccc(-c2nc3c(c(-c4ccccc4)n2)CN(C(=O)c2ccc(F)cc2)CC3)cc1,-7.07,-10,-7.95,-18.9,-16.1
COc1ccc2c(c1)C(COCc1ccc(S(C)(=O)=O)cc1)CC(C)(C)O2 (stereo not given),-9.19,-8.79,-2.77,-15,-7.61
CC(=O)Nc1cccc(C(=O)NCc2nn(Cc3ccccc3)c3ccccc23)c1,-0.246,2.54,-0.684,-5.84,-0.11
COCCCNC(=O)C1(C)Cn2nc(-c3ccccc3)cc2C(=O)N1c1ccc(C)c(C)c1 (stereo not given),2.4,4.91,0.86,5.43,-4.51
COCc1nc(C2CC(NC(=O)c3nn(C)c4c3CCCC4)C2)cc(=O)[nH]1 (stereo not given),-2.54,-2.38,-0.389,-3.07,0.882
CCC(C)Nc1nc2c(S(=O)(=O)c3ccc(C(C)C)cc3)nnn2c2ccccc12 (stereo not given),-0.979,3.96,0.386,2.11,-3.53
